From PubChem BioAssay (NCATS)
The shares of active, inactive and inconclusive entries below differ from those in the screen. For some of these results: Potencies of inconclusive entries are doubtful fits and often do not repeat. The source made the active and inactive calls. Unless noted, calls come from the whole dose curve; as a rule, active = well fitted curve in the direction sought with a large enough effect; inconclusive = small, poorly fitted or top-dose-only effect, or another doubt; inactive = no such curve, though single readings can be large; an effect the other way counts as inactive or inconclusive.

What was measured:
[1] = Primary qHTS for inhibitors of nuclear receptor binding SET domain protein 2 (NSD2) in an RCH-ACV wild type WT cells (2C) (AID 1645877); details: activity change, negative = cell killing: at 44.9 µM (top of the series) unless noted; note: nearly all actives have a fitted effect of over 70% in size; note: potency is the fitted concentration of half-maximal effect; for activity change, negative = cell killing: % is set by controls: 0 for no effect and ±100 for the full control effect
[2] = Primary qHTS for inhibitors of nuclear receptor binding SET domain protein 2 (NSD2) in an isogenic RCH-ACV NSD2 p.E1099K mutant (9B) (AID 1645876); details: activity change, negative = viability loss: at 44.9 µM (top of the series) unless noted; note: nearly all actives have a fitted effect of over 70% in size; note: potency is the fitted concentration of half-maximal effect
[3] = molecular target: Cytochrome P450 2C9 (Homo sapiens) (UniProt P11712); assay: Cytochrome P450 family 2 subfamily C member 9 (CYP2C9) small molecule antagonists: luciferase biochemical (cell-free) qHTS assay (AID 1645842; active = well fitted curve in the direction sought with a large enough effect in the repeat runs; inconclusive = weak or mixed curves; inactive = no such curve, though single readings can be large; an effect the other way counts as inactive or inconclusive; note: % is set by controls: 0 for no effect and ±100 for the full control effect; nearly all actives have a fitted effect of over 55% in size)
Chain of UniProt P11712 (P11712 whole entry, looked up): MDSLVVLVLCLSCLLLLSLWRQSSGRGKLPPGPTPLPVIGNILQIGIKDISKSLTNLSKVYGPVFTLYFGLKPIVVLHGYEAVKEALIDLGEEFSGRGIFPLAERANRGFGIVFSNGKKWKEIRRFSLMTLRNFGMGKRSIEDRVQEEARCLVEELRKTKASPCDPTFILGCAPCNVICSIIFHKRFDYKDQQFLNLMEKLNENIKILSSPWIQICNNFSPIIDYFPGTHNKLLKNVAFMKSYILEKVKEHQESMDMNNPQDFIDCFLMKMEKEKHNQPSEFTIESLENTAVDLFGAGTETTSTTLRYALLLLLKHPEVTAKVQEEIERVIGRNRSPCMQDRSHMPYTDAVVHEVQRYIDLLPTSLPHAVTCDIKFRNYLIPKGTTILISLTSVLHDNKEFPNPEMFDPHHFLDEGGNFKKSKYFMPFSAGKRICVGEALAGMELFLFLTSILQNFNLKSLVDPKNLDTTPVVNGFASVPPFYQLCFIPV
Method in brief: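 P450-Glo CYP2C9 system: proluciferin substrate with enzyme in mix containing 0.4% BSA, 10 min at room temperature, then NADPH regeneration solution added and incubated 1 h at 37C. Detection reagent stopped reaction; luminescence read after 20 min as RLU.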

[4] = system: MCC-13; assay: qHTS assay to identify novel small-molecules to repurpose for Merkel cell carcinoma treatment (AID 1296009); details: MCC and control cell lines, CellTiter-Glo viability, 72 h; series mostly up to 46 µM; note: nearly all actives have a fitted effect of over 60% in size; note: potency is the fitted concentration of half-maximal effect; for activity change, negative = cytotoxicity: % is set by controls: 0 for no effect and ±100 for the full control effect
Method in brief: (§1)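 CellTiter-Glo luminescence after 72 hr compound exposure at 37 degree celsius gave cell viability. Libraries NPC and MIPE were run as 8- and 11-point dose responses; RLUs normalized to DMSO (negative) and no-cell (cytotoxicity) controls.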

[5] = system: UISO; assay: as above; details: MCC and control cell lines, CellTiter-Glo viability, 72 h; series mostly up to 46 µM
Method in brief: as §1

[6] = system: SKOV3; assay: Primary qHTS to identify gynecologic anti-cancer compounds using libraries of approved drugs and bioactive compounds (AID 1345084); details: Gynecologic cancer cell panel viability, ATPlite luminescence, 48 h; series mostly up to 57.5 µM; note: nearly all actives have a fitted effect of over 55% in size; note: potency is the fitted concentration of half-maximal effect
Method in brief: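 Cytotoxicity screen measuring ATP content by luciferase luminescence. Each compound is applied at five concentrations for 48 h at 37 C with 5% CO2.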

[7] = qHTS of pediatric cancer cell lines to identify multiple opportunities for drug repurposing: Primary screen for A673 cells (AID 1347092); details: A673 Ewing sarcoma viability, CellTiter-Glo ATP luminescence, 48 h; activity change, negative = cytotoxic: at 46 µM (top of the series); note: nearly all actives have a fitted effect of over 45% in size; note: potency is the fitted concentration of half-maximal effect
Method in brief: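 Luminescence from CellTiter-Glo, taken after 15 min at room temperature, served as the proxy for metabolically active cells following 48 h treatment. Both potency and efficacy were taken from curves fitted to the titration data.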

[8] = qHTS of pediatric cancer cell lines to identify multiple opportunities for drug repurposing: Primary screen for SK-N-MC cells (AID 1347093); details: SK-N-MC viability, CellTiter-Glo luminescence, 48 h; activity change, negative = cytotoxic: at 46 µM (top of the series);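 note: plate controls were DMSO neutral control for no effect and bortezomib for full effect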
Method in brief: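 Metabolically active cells were quantified by ATP-dependent luminescence (CellTiter-Glo, 15 min at room temperature) following 48 h treatment. Cells had been plated at 500-1,000 per well and settled for 5 h beforehand.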

[9] = qHTS of pediatric cancer cell lines to identify multiple opportunities for drug repurposing: Primary screen for NB-EBc1 cells (AID 1347095); note: potency is the fitted concentration of half-maximal effect;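 for activity change, negative = cytotoxic: plate controls were DMSO neutral control for no effect and bortezomib for full effect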
Method in brief: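 Cells seeded at 500-1,000 cells/well in growth media, rested 5 hours at 37 degrees C, 5% CO2, then dosed; MIPE compounds at 11-point (from 0.78 nM) and NPC at 8-point (from 0.59 nM) final concentrations. Viability by CellTiter-Glo luminescence after 48 hours.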

[10] = qHTS of pediatric cancer cell lines to identify multiple opportunities for drug repurposing: Primary screen for BT-12 cells (AID 1347101); note: nearly all actives have a fitted effect of over 25% in size; note: potency is the fitted concentration of half-maximal effect;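 for activity change, negative = cytotoxic: plate controls were DMSO for no effect and bortezomib positive control for full effect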
Method in brief: (§2)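 Cells (500-1,000/well) rested 5 h, then received compounds for 48 h; metabolically active cells were measured by CellTiter-Glo luminescence. Final concentrations spanned up to 46 µM (MIPE, 11-point) or 0.59 nM-46 µM (NPC, 8-point) in primary screens, 11-point in follow-ups.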

[11] = Primary qHTS for small molecule stabilizers of the endoplasmic reticulum resident proteome: Secreted ER Calcium Modulated Protein (SERCaMP) assay (AID 1508630); details: SH-SY5Y GLuc-SERCaMP (Gaussia luciferase released on ER calcium loss) secretion, thapsigargin, luminescence; activity change, negative = inhibition: at 38.4 µM (top of the series) unless noted; note: potency is the fitted concentration of half-maximal effect
Method in brief: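 The SH-SY5Y reporter protocol was run at 3 concentrations up to 38.3 uM (primary) or 11 concentrations (follow-up): 16 h compound, 100 nM thapsigargin for 4 h, then extracellular luciferase luminescence.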

[12] = molecular target: Cytochrome P450 2D6 (Homo sapiens) (UniProt P10635); assay: Cytochrome P450 family 2 subfamily D member 6 (CYP2D6) small molecule antagonists: luciferase biochemical (cell-free) qHTS assay (AID 1645840; active = well fitted curve in the direction sought with a large enough effect in the repeat runs; inconclusive = weak or mixed curves; inactive = no such curve, though single readings can be large; an effect the other way counts as inactive or inconclusive; note: nearly all actives have a fitted effect of over 55% in size; note: potency is the fitted concentration of half-maximal effect)
Chain of UniProt P10635 (P10635 whole entry, looked up): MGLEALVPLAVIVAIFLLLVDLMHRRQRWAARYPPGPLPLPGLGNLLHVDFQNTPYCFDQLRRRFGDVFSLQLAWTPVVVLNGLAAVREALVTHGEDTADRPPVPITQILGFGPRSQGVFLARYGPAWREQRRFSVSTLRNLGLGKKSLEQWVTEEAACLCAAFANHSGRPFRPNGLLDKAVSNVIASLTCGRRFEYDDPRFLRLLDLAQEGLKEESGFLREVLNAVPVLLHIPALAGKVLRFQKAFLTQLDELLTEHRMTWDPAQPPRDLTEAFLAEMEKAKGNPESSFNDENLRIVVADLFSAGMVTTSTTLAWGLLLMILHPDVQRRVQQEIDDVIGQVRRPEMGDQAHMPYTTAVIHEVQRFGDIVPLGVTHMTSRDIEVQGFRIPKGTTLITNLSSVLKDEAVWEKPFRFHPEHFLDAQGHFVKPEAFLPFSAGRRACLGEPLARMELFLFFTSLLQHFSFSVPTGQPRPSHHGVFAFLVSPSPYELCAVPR
Method in brief: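 P450-Glo CYP2D6 system: proluciferin substrate converted by enzyme to luciferin, read by luminescence proportional to activity. Enzyme-substrate mix with compound 10 min at room temperature, then NADPH regeneration 1 h before detection reagent.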

[13] = system: MKL-2; assay: qHTS assay to identify novel small-molecules to repurpose for Merkel cell carcinoma treatment (AID 1296009); details: MCC and control cell lines, CellTiter-Glo viability, 72 h; activity change, negative = cytotoxicity: at 46 µM (top of the series); note: nearly all actives have a fitted effect of over 60% in size; note: potency is the fitted concentration of half-maximal effect; for activity change, negative = cytotoxicity: % is set by controls: 0 for no effect and ±100 for the full control effect
Method in brief: as §1

[14] = qHTS of pediatric cancer cell lines to identify multiple opportunities for drug repurposing: Primary screen for SK-N-SH cells (AID 1347098); note: nearly all actives have a fitted effect of over 65% in size; note: potency is the fitted concentration of half-maximal effect
Method in brief: as §2

[15] = Drug repurposing screens with cells derived from glioblastoma tumor samples (AID 1345199); details: GBM patient neurospheres viability, ATP luminescence, 48 h; Potency: tumour line A unless noted; activity, negative = cell killing: at 46 µM (top of the series), tumour line A unless noted; note: nearly all actives have a fitted effect of over 40% in size; note: potency is the fitted concentration of half-maximal effect
Method in brief: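 Primary testing used CD133+ neurospheres from four GBM patients, seven concentrations, 48 h exposure and ATP-based viability; confirmation added three slower-growing patient lines.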

[16] = qHTS of pediatric cancer cell lines to identify multiple opportunities for drug repurposing: Primary screen for OHS-50 cells (AID 1347103); details: OHS-50 osteosarcoma viability, CellTiter-Glo luminescence, 48 h; activity change, negative = cytotoxic: at 57.3 µM (top of the series); note: potency is the fitted concentration of half-maximal effect; nearly all actives have a fitted effect of over 40% in size
Method in brief: as §2

[17] = system: MKL-1; assay: qHTS assay to identify novel small-molecules to repurpose for Merkel cell carcinoma treatment (AID 1296009); details: MCC and control cell lines, CellTiter-Glo viability, 72 h; series mostly up to 46 µM; note: nearly all actives have a fitted effect of over 60% in size; note: potency is the fitted concentration of half-maximal effect; for activity change, negative = cytotoxicity: % is set by controls: 0 for no effect and ±100 for the full control effect
Method in brief: as §1

[18] = system: WaGa; assay: as above; details: MCC and control cell lines, CellTiter-Glo viability, 72 h; series mostly up to 46 µM
Method in brief: as §1

[19] = A High-Content qHTS Against Drug Library for the Identification of Small Molecules that Inhibit DYT1 Early Onset Primary Dystonia-Associated Cell Pathology (AID 1645839; calls by dose curve; note: potency is the fitted concentration of half-maximal effect)
Method in brief: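 Cells were seeded and left for 24 h, then dosed with compound alongside tetracycline induction of mutant EGFP-TorsinA. They were incubated for 48 h, fixed in 4% paraformaldehyde, permeabilized and imaged for mislocalization (%pathology) and cell count.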
Tags give direction and shape of the fitted curve.

COc1cc2c(c(OC)c1O)C(c1ccc(O)cc1)C1C(=O)OC3C(COC(=O)C1=C2)OC(CO)(OC1OC(COC(=O)/C=C/c2ccc(OC4OC(C)C(O)C(O)C4O)cc2)C(O)C(O)C1O)C3O (stereo unspecified)
inactive: activity change, negative = cell killing [1] -15.9% [at 9.23 µM]

Oc1ccccc1-c1cc(-c2ccccc2F)[nH]n1
inconclusive: Potency [2] 29 µM [inhibitor, single point] | Potency [1] 29 µM [inhibitor, single point]

NCCc1ccn[nH]1
inactive: Potency [3] | Potency [4] | Potency [5]
inconclusive: Potency [6] 1.26 µM [rising, partial curve]

Cc1c(-c2ccccc2)oc2c(C(=O)OCCN3CCCCC3)cccc2c1=O
inactive: Potency [7] | Potency [8] | Potency [9] | Potency [10] | Potency [2] | Potency [4] | Potency [5]

COc1cc2[nH]c(=O)[nH]c(=O)c2cc1OC
inactive: Potency [8] | Potency [12] | Potency [3] | Potency [4] | Potency [13] | Potency [6]
inconclusive: Potency [11] 8.91 µM [inhibitor, full curve]

C=C1c2cccc(O)c2C(O)=C2C(=O)[C@]3(O)C(O)=C(C(N)=O)C(=O)[C@@H](N(C)C)[C@@H]3[C@@H](O)[C@H]12
inactive: Potency [2] | Potency [4] | Potency [5]
inconclusive: Potency [7] 21.1 µM [cytotoxic, single point] | Potency [14] 6.12 µM [cytotoxic, partial curve, poor fit] | Potency [10] 13.8 µM [cytotoxic, partial curve, poor fit] | Potency [11] 31.6 µM [inhibitor, partial curve] | Potency [12] 38.9 µM [inhibitor, single point] | Potency [1] 18.8 µM [inhibitor, single point] | Potency [13] 21.1 µM [inhibitor, single point]

CCC(C(=O)NC(=O)NC(C)=O)c1ccccc1 (stereo unspecified)
inactive: Potency [7] | Potency [14] | Potency [10] | Potency [12] | Potency [4] | Potency [15]
inconclusive: Potency [6] 0.794 µM [cytotoxic, single point]

CCOc1ccc(S(=O)(=O)n2c(C)nc3ccccc32)cc1
inconclusive: Potency [1] 15.9 µM [inhibitor, single point]

CN1CCN(CC(=O)N2c3ccccc3C(=O)Nc3cccnc32)CC1
inconclusive: Potency [2] 2.99 µM [inhibitor, single point] | Potency [1] 1.68 µM [inhibitor, single point] | Potency [15] 35.5 µM [inhibitor, partial curve, poor fit]
inactive: activity change, negative = cytotoxic [7] 5.45% [at 4.84 µM] | activity change, negative = cytotoxic [8] -2.23% [at 4.84 µM] | activity change, negative = cytotoxicity [4] 8.41% [at 4.84 µM] | activity change, negative = cytotoxicity [13] 15.9% [at 4.84 µM]

CNC(=O)CN1CCC(Oc2cc3c(Nc4cccc(Cl)c4F)ncnc3cc2OC)CC1
inconclusive: activity change, negative = cytotoxic [7] -91.2% | Potency [12] 37.9 µM [inhibitor, single point] | Potency [1] 16.3 µM [inhibitor, single point] | Potency [17] 0.0148 µM [inhibitor, full curve] | Potency [18] 0.003 µM [inhibitor, full curve]
active: Potency [9] 0.0066 µM | Potency [16] 0.001 µM | Potency [4] 3.32 µM | Potency [6] 14.1 µM

COc1ccc(-c2cc(=O)c3c(O)cc(O[C@@H]4O[C@H](CO[C@@H]5O[C@@H](C)[C@H](O)[C@@H](O)[C@H]5O)[C@@H](O)[C@H](O)[C@H]4O)cc3o2)cc1O
inconclusive: Potency [19] 7.94 µM [inhibitor, partial curve]
inactive: Potency [10] | Potency [12] | Potency [4] | Potency [5] | Potency [6]
